Test results published in PMC6861171 (Science (New York, N.Y.), 2015).

Target: T1, CYP719A23 (Sinopodophyllum hexandrum, UniProt L7T8H2)
T1 sequence (L7T8H2 1-489): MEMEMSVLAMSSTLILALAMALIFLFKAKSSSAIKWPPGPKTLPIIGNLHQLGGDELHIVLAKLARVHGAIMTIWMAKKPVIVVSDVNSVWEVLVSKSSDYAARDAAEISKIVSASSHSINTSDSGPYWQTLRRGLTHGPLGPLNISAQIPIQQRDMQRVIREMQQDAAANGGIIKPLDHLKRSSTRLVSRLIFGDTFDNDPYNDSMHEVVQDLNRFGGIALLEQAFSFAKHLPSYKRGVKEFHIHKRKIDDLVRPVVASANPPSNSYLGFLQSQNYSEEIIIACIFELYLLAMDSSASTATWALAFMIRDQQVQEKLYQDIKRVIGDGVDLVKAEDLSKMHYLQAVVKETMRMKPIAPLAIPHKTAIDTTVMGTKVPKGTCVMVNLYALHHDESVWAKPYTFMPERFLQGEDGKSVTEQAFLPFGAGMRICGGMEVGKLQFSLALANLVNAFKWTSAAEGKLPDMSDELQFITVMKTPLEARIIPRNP
Experiment: expression in N. benthamiana leaves, substrate infiltration, LC-MS
Type: cell-based
Details: product (−)-pluviatolide

Compound: COc1cc(C[C@H]2COC(=O)[C@@H]2Cc2ccc(O)c(OC)c2)ccc1O [(−)-matairesinol]
- expression in N. benthamiana leaves, substrate infiltration, LC-MS: we infiltrated leaves expressing CYP719A23 with (−)-matairesinol
